Reference: PubChem BioAssay AID1963576 (National Center for Advancing Translational Sciences (NCATS), 2024)
In all, about 46,000 compounds went through this assay and about 60 (0.1%) were called active. About 3% were inconclusive and are not listed. Calls follow the shape of the dose curve; as a rule, active = well fitted inhibition curve with a large enough effect; inconclusive = small, poorly fitted or top-dose-only effect; inactive = no such curve, though single readings can be large or run the other way. Some of the results follow.

Assay: Primary qHTS assay for Inhibitors of ovarian cancer metastasis using an organotypic tumor microenvironment (TME) model. Also: nearly all actives have a fitted effect of over 65% in size.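 As to activity change, negative = inhibition: plate controls were DMSO wells for no effect and tomatine positive control wells for full effect.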
Details: SKOV3ip1-GFP adhesion/invasion on 3D omental model, fluorescence; series mostly up to 45.8 µM; activity change, negative = inhibition: at the top concentration
Summary of the method: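 qHTS, 4-pt dose (0.36-46 umol/L); SKOV3ip1-GFP, 1,200 cells/well, no FBS; primary omental fibroblast/mesothelial co-culture 48 h pre-grown; 2 h RT + 16 h 37 C; PBS wash, 4% PFA; GFP count 488/509 nm.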

Activity change, negative = inhibition, inactive:
CC(=O)Nc1ccc(NC(=O)c2cc3c(=O)n(Cc4cccnc4)ccc3nc2C)cc1 -1.26%
CCOc1ccccc1-c1noc(CCCC(=O)Nc2cccc(C(F)(F)F)c2)n1 -4.67%
COC(=O)c1ccc(C2C=C(c3ccc(Cl)cc3)Nc3nc4ccccc4n32)cc1 (centres undefined) -18.1%
O=C(NCC(c1cccnc1)N1CCc2ccccc21)c1ccc(F)c(F)c1 (centres undefined) -5.93%
Cc1cc(C)c2oc(C(=O)Nc3c(C)n(C)n(-c4ccccc4)c3=O)cc(=O)c2c1 5.32%
CCOC(=O)CCN(c1ccccc1)S(=O)(=O)c1cc(-c2cc(C)no2)ccc1C -1.03%
Cc1cn(C)c(CC(=O)N2CCN(c3cccc(C(F)(F)F)c3)CC2)c1C(=O)O 1.35%
CCc1cc2c(cc3c(=O)n(CC(=O)NC4CCCCC4)nc(CC)n32)s1 -8.73%
Cc1ccc(-n2nc3cc(C)c(NC(=O)COc4ccccc4)cc3n2)cc1 7.08%
Cc1ccc(-n2cc3c(c2-c2ccccc2Br)c(=O)n(C)c(=O)n3C)cc1N -11.2%
Cc1cccc(C(=O)Nc2cccc(OCc3cc(=O)n4cc(C)sc4n3)c2)c1 -8.62%
Cc1ccc(C)c(NC(=O)Cn2c(=O)n(-c3ccccc3C)c(=O)c3c2c2cc(C)ccc2n3C)c1 -2.6%
CC(C)n1cc2c(c1-c1ccccc1Cl)c(=O)n(C)c(=O)n2C 7.34%
COc1ccccc1N1CCN(CCCNC(=O)c2nnc(Cc3c(F)cccc3Cl)o2)CC1 1.62%
COc1ccccc1-c1nc2c(c(SCC(=O)Nc3ccccc3F)n1)Cc1c(CO)cnc(C)c1O2 8.05%
CCOc1ccc(CCNC(=O)CS(=O)(=O)Cc2nc(-c3cccc(Cl)c3)oc2C)cc1 -11.4%
CC(O)CNC(=O)C(=O)Nc1c2c(nn1-c1ccc(Cl)cc1)CSC2 (centres undefined) -2.38%
Cc1ccc2c(=O)cc(C(=O)N(Cc3ccccc3Cl)C3CCS(=O)(=O)C3)oc2c1 (centres undefined) 3.5%
COc1ccc(-c2cc(-c3ccccc3)c(C#N)c(SCC(O)CS(=O)(=O)Cc3ccccc3)n2)cc1 (centres undefined) -2.53%
COc1ccccc1C(=O)Nc1c(C(=O)N2CCN(c3ccc(F)cc3)CC2)oc2ccccc12 -1.75%
COc1ccccc1-c1nc2c(c(SCc3ccc(F)cc3Cl)n1)Cc1c(CO)cnc(C)c1O2 -3.37%
CCOC(=O)c1c(C)[nH]c(C)c1S(=O)(=O)N1CCC(C(=O)N2CCN(c3cccc(C)c3C)CC2)CC1 1.31%
CCc1ccc(NC(=O)c2sc3nc4c(cc3c2N)CN(CC)CC4)cc1 -10.6%
COc1ccc(Cl)cc1NC(=O)Cc1coc2c(C)c(C)ccc12 -2.31%
COc1cccc(-c2cc(C(=O)N3CCN(c4ccccc4OC)CC3)no2)c1 1.88%
CCC(CC)C(=O)Nc1c(C(=O)N2CCN(c3ccccc3)CC2)oc2ccccc12 -3.36%
Cc1cc(C)c2c(=O)cc(C(=O)Nc3nc4ccc(F)cc4s3)oc2c1 6.14%
NC(=O)c1cccc(N)c1 12.5%
Cc1cccc(CSc2nc3cc(C(=O)NC4CCCC4)ccc3c(=O)n2Cc2ccccc2)c1 -0.84%
Cc1coc2cc3oc(=O)c(CC(=O)N4CCCCC4)c(C)c3cc12 0.346%
Cc1ccc(-n2nc(C(C)(C)C)cc2NC(=O)Nc2ccc(OCCN3CCOCC3)c3ccccc23)cc1 26.3%
CC1CCCCN1C(=O)c1ccc2c(c1)N(Cc1cccc(Cl)c1)C(=O)c1ccccc1S2=O (centres undefined) -3.52%
COc1ccc(CNC(=O)CCc2c(C)nn(-c3ccc(N4CCCCC4)nn3)c2C)cc1 21.7%
CCc1ccc(-n2nc3cc(C)c(NC(=O)c4ccccc4C)cc3n2)cc1 -1.12%
CCOc1ccc(-c2c(C)nn3c(C)c(C(=O)NCc4ccc(Cl)cc4)cnc23)cc1OCC 2.55%
CC1CCN(c2nc3c(-c4cccc(Br)c4)nnn3c3ccccc23)CC1 9.35%
COc1ccc(CCNC(=O)c2cc(=O)c3cc(C)cc(C)c3o2)cc1OC 7.73%
N=c1n(CCO)c2ccccc2n1Cc1ccccc1F -3.66%
Cc1ccc(-c2cc(C(=O)OCC(=O)c3ccccc3)c3cccc(Cl)c3n2)cc1 -4.68%
CCC(Sc1nc2ccccc2c2nc(CCn3c(C)nc4ccccc43)nn12)C(=O)Nc1ccc(F)cc1 (centres undefined) 1.64%
COc1ccc(Br)c(C(=O)Nc2cc3c(cc2N2CCCC2)n(C)c(=O)c(=O)n3C)c1 12.9%
O=C(OCc1ccco1)c1ccc2c(c1)N(Cc1cccc(F)c1)C(=O)c1ccccc1S2 15.7%
Cc1ccc2oc(=O)c3cc(C(=O)N(Cc4ccccc4)C(C)C)sc3c2c1 8.3%
CNC(=O)c1ccc(C)c(-n2c(C)cc(OCc3ccc(F)cc3F)c(Br)c2=O)c1 5.3%
O=C(CSc1oc(-c2ccco2)nc1S(=O)(=O)c1ccc(Cl)cc1)c1ccc(Cl)cc1 -1.82%
Cc1ccc(S(=O)(=O)Nc2cc3c(cc2N2CCOCC2)n(C)c(=O)n3C)c(C)c1 9.52%
CCN1CCC(N(Cc2cccc(OC)c2)C(=O)Nc2ccc(C)cc2Cl)CC1 -6.81%
Cc1ccc(CSc2nc(=O)c3c(n2C)NC(=O)CC3c2ccc(OC(C)C)cc2)cc1 (centres undefined) 4.79%
CCC(C(=O)Nc1cccc(C#N)c1)n1c(=O)c(-c2ccccc2NC(C)=O)nc2ccccc21 (centres undefined) -0.167%
COC1=C2C[C@@H](C)C[C@H](OC)[C@@H](O)[C@@H](C)C=C(C)[C@H](OC(N)=O)[C@@H](OC)C=CC=C(C)C(=O)NC(=CC1=O)C2=O -4.79%
COc1ccc(-c2c3c(=O)n(C)c(=O)n(C)c3c3c(-c4ccc(C)cc4)nc4ccccc4n23)cc1 -5.91%
Cc1ccc(NC(=O)Cn2c(-c3ccc4c(c3)OCO4)cn(-c3ccccc3)c2=O)cc1 10.6%
Cc1ccc(C)c(NC(=O)CCCn2nc(C)c3sc4ccccc4c3c2=O)c1 3.4%
Cc1cc(O)c(C(c2ccccc2Cl)N2CCN(c3ccccc3)CC2)c(=O)n1Cc1ccco1 (centres undefined) 3.29%
CCc1nnc(NC(=O)CSCc2cc(=O)c3ccc(C)cc3[nH]2)s1 1.14%
COc1cc(NC(=O)c2cnn(-c3cccc(F)c3)c2C2CCNCC2)cc(OC)c1OC -9.2%
CCCN(CCC)CCNC(=O)c1cc2c(-c3ccccc3F)nn(C)c2s1 -20.2%
COc1ccc(NC(=O)CN(Cc2ccccc2)S(=O)(=O)c2ccc3nc(C)sc3c2)cc1 -7.01%
Cc1ccc(NC(=O)c2cccn2-c2nnc(N3CCCCC3)s2)cc1Cl 5.67%
O=C1c2oc3ccc(F)cc3c(=O)c2C(c2cccc([N+](=O)[O-])c2)N1CCCN1CCOCC1 (centres undefined) 2.7%
CCOc1ccc(-c2cnc(NCc3ccc(OC)cc3OC)n2C)cc1 -7.42%
O=C(NCc1ccc(F)cc1)c1ccc(NC(=O)N2CC3CCCN3c3ccccc32)cc1 (centres undefined) -19%
COCCNC(=O)C1CCCN(S(=O)(=O)c2ccc3c(ccn3C)c2)C1 (centres undefined) 2.63%
CN1C2CCC1CC(OC(=O)C(CO)c1ccccc1)C2 (centres undefined) -9.9%
CCc1c(C)sc2c1CCN(Cc1ccc(F)cc1)C2c1ccccc1 (centres undefined) -1.09%
COc1ccc(CNC(=O)COCc2cc(-c3cccs3)on2)cc1OC 8.5%
COc1ccc(Cl)cc1NC(=O)CCC(=O)c1ccc(C)cc1 0.827%
CC(=O)c1ccc(NC(=O)c2ncn(-c3ccccc3)n2)cc1 -4.58%
CCc1ccc(CN(C(=O)c2cc3ccccc3oc2=O)C2CCS(=O)(=O)C2)cc1 (centres undefined) -8.68%

outcome, inactive:
O=C(CSc1nc(-c2ccc(F)cc2)nc2c1Cc1ccccc1O2)Nc1cccc(C(=O)O)c1
CC(=O)N1CCc2c(sc3c2c(=O)n(-c2ccccc2C)c(=O)n3CC(=O)c2ccccc2)C1
Cc1ccc(C(=O)NCC(=O)OCc2cc(=O)n3c(C)csc3n2)cc1
COc1ccc(NC(=O)C2CCCN(C(=O)c3cnn(-c4ccccc4)c3-n3cccc3)C2)cc1 (centres undefined)
COc1ccc(CCNc2nc(-c3ccc(Cl)cc3)cc(C(F)(F)F)n2)cc1OC
COC(=O)c1ccc(NC(=O)CCc2c(C)nn(-c3ccc(N4CCOCC4)nn3)c2C)cc1
O=C(Nc1ccc(F)cc1)c1ccc(Cn2nc(N3CCN(c4ccccc4)CC3)ccc2=O)o1
Cc1ccc(CNS(=O)(=O)c2ccc(-c3cnc(C4CC4)o3)cc2)cc1
CCc1cccc(NC(=O)Cn2c(=O)c(C(F)(F)F)nc3ccccc32)c1
Cc1cc(N(C)Cc2ccccc2)n2nc(-c3ccc(C(C)(C)C)cc3)nc2n1
CCCCNC(=O)c1cccc(-n2cnc3cccnc32)c1C
CCCCCn1c(=O)[nH]c2cc(C(=O)NCCN(C)CCCC)ccc2c1=O
CCC(NC(=O)Nc1cc(Cl)ccc1OC)c1c(-n2cccc2)sc2c1CCN(C)C2 (centres undefined)
COc1ccc(OCCn2nnc3sc4c(c3c2=O)CCC(C(C)(C)C)C4)cc1 (centres undefined)
O=C(CSc1c2c(nc3ccc(Cl)cc13)CCCC2)NCc1ccccc1Cl
CCOc1ccccc1NC(=O)CC(c1ccc(F)cc1)N1Cc2ccccc2C1=O (centres undefined)
Cc1ccc(CN2c3ccccc3S(=O)(=O)c3ccccc32)cc1
COc1ccc(CNC(=O)CC2N=C3c4ccccc4N=C(SCC(=O)Nc4ccc(N(C)C)cc4)N3C2=O)cc1 (centres undefined)
CCCCCNC(=O)C(=O)NCC(c1ccc2c(c1)OCO2)N1CCOCC1 (centres undefined)
Cc1ccc2c(c1)c1c(c(=O)n(Cc3ccccc3)c(=O)n1CC(=O)Nc1ccccc1C)n2C
COc1cc(CN(C(=O)COc2ccc(C)c(C)c2)c2ccccn2)cc(OC)c1OC
Cn1nc(C(=O)N2CCN(c3ccccc3F)CC2)c2c1-c1ccccc1SC2
CCCCN(CC)CCCNC(=O)c1cc2c(-c3ccc(OC)c(OC)c3)nn(C)c2s1
CCN(CC)CCNC(=O)Cn1ncc2c([nH]c3ccccc32)c1=O
CCCCNC(=O)CCCn1c(=O)c2ccccc2n(Cc2ccccc2C)c1=O
